# Source: PMC4336329 (PLoS ONE, 2015)
# Screen size: about 310,000 compounds; about 14,000 (4.5%) showed an effect of 50% or more. Effects have a minus sign here. The list shows a part of the results.
# Target: human ether-à-go-go-related gene (hERG) potassium channel (human, UniProt Q12809)
# Test: primary screen, population patch clamp on CHO cells stably expressing hERG
# 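Also: peak tail current of the secondary pulse compared with the same well before compound.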
# human ether-à-go-go-related gene (hERG) potassium channel, sequence (Q12809 whole entry, looked up): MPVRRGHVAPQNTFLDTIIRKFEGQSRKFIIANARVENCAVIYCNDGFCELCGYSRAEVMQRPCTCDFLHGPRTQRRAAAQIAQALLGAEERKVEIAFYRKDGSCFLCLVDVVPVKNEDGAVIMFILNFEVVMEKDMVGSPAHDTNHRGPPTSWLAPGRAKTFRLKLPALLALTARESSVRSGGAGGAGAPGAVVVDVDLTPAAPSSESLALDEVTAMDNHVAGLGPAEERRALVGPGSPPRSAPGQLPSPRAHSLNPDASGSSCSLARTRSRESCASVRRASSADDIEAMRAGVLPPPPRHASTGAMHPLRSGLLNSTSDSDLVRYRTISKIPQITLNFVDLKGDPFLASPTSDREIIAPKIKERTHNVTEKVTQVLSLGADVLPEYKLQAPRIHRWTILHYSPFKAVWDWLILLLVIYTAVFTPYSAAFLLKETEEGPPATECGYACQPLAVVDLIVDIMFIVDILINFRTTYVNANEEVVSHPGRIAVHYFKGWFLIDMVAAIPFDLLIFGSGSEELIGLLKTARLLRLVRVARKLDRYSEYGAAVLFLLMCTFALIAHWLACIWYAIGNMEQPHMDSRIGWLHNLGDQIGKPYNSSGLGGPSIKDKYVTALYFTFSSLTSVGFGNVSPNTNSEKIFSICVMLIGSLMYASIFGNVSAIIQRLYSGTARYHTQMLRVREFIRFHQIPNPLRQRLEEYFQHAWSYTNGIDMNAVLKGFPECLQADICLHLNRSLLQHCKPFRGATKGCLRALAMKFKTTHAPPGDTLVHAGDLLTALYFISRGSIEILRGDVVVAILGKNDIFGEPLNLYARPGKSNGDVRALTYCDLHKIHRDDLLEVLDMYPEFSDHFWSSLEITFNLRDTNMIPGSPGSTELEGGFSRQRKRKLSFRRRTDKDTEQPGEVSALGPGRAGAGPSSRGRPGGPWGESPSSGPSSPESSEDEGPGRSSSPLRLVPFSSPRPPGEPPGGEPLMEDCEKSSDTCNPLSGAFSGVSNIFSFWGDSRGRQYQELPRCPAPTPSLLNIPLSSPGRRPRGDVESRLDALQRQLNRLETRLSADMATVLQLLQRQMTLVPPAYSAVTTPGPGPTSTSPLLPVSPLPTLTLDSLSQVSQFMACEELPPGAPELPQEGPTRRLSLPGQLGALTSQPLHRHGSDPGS
row,Structure (SMILES),"hERG current change (%, negative = inhibition) at 10uM [%]"
1,CN(CCNC(=O)c1ccc(N2CCCC2=O)cc1)CCc1ccccc1,-43.2
2,Cc1cc(Cl)ccc1NC(=S)NCC(C)C,11.6
3,Cc1ccc(CSc2n[nH]c(N)n2)cc1,12.5
4,CCOC(=O)N1CCN(C(=O)C2CCN(S(=O)(=O)c3ccc(NC(C)=O)cc3)CC2)CC1,23.1
5,COc1cc(OC)nc(NC(=O)NS(=O)(=O)c2ccccc2Cl)n1,21.3
6,Nc1ncnc2c1ncn2[C@@H]1O[C@H](COP(=O)(O)O)[C@@H](O)[C@H]1O.O,-1.22
7,COC(=O)c1ccc(OC(=O)c2cccs2)cc1,22
8,NC(=O)C1=C[C@@H](c2ccc(C(F)(F)F)cc2)C[C@@H](OCCCCO)O1,-9.66
9,COc1ccc(C(=O)NCc2cnn(C)c2C)cc1OC1CCN(C(C)C)CC1,8.77
10,COc1ccc(/C=C2/C(=O)ON=C2c2ccccc2)cc1OC,-1.25
11,CC(O)CNc1nc2c(c(=O)n(Cc3cccc(Cl)c3)c(=O)n2C)n1C (stereo not shown),2.33
12,CS(=O)(=O)Nc1cccc(C2=NN(C(=O)c3ccccc3Cl)C(c3ccccc3O)C2)c1 (stereo not shown),-6.02
13,CCc1ccc(-c2cc(C(F)(F)F)n3nc(C(=O)Nc4c(C)nn(Cc5ccccc5Cl)c4C)cc3n2)s1,0.684
14,Cc1ccn(C(=O)c2cc3cc(Cl)ccc3oc2=O)n1,3.44
15,COc1ccccc1-c1cc(C(F)(F)F)nc(N2CCCC2)n1,22.6
16,COc1ccc(-c2noc(C3CCCN(C(=O)c4c(F)cccc4F)C3)n2)cc1OC (stereo not shown),5.33
17,COc1ccc2[nH]c(=O)c(CN(Cc3ccco3)Cc3nnnn3Cc3ccccc3)cc2c1,3.49
18,O=C(NCCc1nccs1)C1CCC(=O)N(Cc2cccc(C(F)(F)F)c2)C1 (stereo not shown),9.82
19,Cc1ccc2c(c1)nnn2C1CCN(S(=O)(=O)c2ccc(C(=O)N(C)C3CCCCC3)cc2)CC1,11.9
20,Cc1ccc(NC(=S)NCc2ccc3c(c2)OCO3)c(C)c1,3.32
21,Cc1cccnc1NC(=O)Nc1cccc(C(F)(F)F)c1,-7.78
22,O=C(CCN1C(=O)c2cccc3cccc(c23)C1=O)NCc1ccco1,-26.5

row,Structure (SMILES),"hERG current change (%, negative = inhibition) at 10uM [%]"
1,Cc1ccc(-n2nc3c(c2NC(=O)C(C)(C)C)CSC3)c(C)c1,9.34
2,Cc1ccc(NS(=O)(=O)c2ccc(C)c(C(=O)N3CCN(C)CC3)c2)cc1.Cl,-14.8
3,Cc1ccccc1NC(=O)N1CCN(C(=O)c2ccco2)CC1,3.42
4,Br.N=C(N)SCc1cn2ccccc2n1,1.14
5,COC(CNC(=O)c1ccc(CS(=O)(=O)c2c(Cl)cccc2Cl)o1)OC,21.2
6,Cc1c(NC(=O)c2ccccc2)cccc1[N+](=O)[O-],-0.956
7,COc1nc(N(C)C)nc(N2CC(=O)N(CCNS(=O)(=O)c3ccc(C)cc3)C2=N)n1,9.78
8,Cc1ccc(CNC(=O)c2c(-c3ccccc3)noc2C)cc1,20.3
9,COC(=O)CSc1nnc(CNC(=O)c2ccccc2F)n1-c1ccc(F)cc1,11.9
10,CCOc1ccc(NC(=O)C2CCN(c3nnnn3-c3ccccc3)CC2)cc1,-40.7
11,Cc1cccc(OCCCC(=O)O)c1C,6.81
12,O=C1CCN(Cc2cccnc2)CCN1[C@H](CO)c1ccccc1,16
13,O=C(NNC(=O)c1ccc(F)cc1)C(=O)N1CCCCC1,-3.24
14,C=CCOc1nc2c(c(=O)n(C)c(=O)n2C)n1C,-7.37
15,Cc1cc(=O)oc2c(CN3CCC(C)CC3)c(O)c(Cl)cc12,4.55
16,CCOC(=O)CC(NC(=O)c1ccccc1F)c1ccc(C)cc1 (stereo not shown),-16.7
17,OC(CNCCc1ccc(C(F)(F)F)cc1)COc1cccc2ccccc12 (stereo not shown),-36.5
18,O=C(Nc1ccc(OCC(=O)N2CCOCC2)cc1)Nc1cccc2ccccc12,10
19,O=C(CSc1nncn1-c1ccccc1)Nc1cc(Cl)cc(Cl)c1,2.01
20,c1ccc(-c2cn(-c3ccccc3)c3ncnc(N4CCCCC4)c23)cc1,6.2
21,CC1(C)Cc2c(sc3nc[nH]c(=O)c23)CO1,10.9
22,CC1(C)C2CC[C@]3(C)C(CC=C4[C@@H]5C[C@@](C)(CO)CC[C@]5(C(=O)O)CC[C@]43C)[C@@]2(C)CC[C@@H]1O (stereo partly shown),16.8

row,Structure (SMILES),"hERG current change (%, negative = inhibition) at 10uM [%]"
1,Cc1ccc(CNC(=O)c2ccc(N3CCC4(CC3)CC(c3cccc(Br)c3)=NO4)c(N)c2)cc1,12.4
2,O=C(OCc1cc2ccccc2[nH]c1=O)C1CCCO1 (stereo not shown),14.8
3,N#Cc1ccc(C(=O)OCC(=O)NC2CCCC2)cc1,0.0657
4,COc1ccc(NC(=O)c2cc(S(=O)(=O)N3CCCCC3)ccc2N2CCCCC2)cn1,-8.6
5,COc1ccc(C(=O)Oc2ccc(/C=N/NC(=O)Cc3ccc([N+](=O)[O-])cc3)cc2)cc1,5.4
6,COc1ccc(-c2cc(-c3c(O)c(OC)c4occc4c3OC)[nH]n2)cc1OC,-2.3
7,COc1ccccc1NC(=O)NCCN1C(=O)C2C3C=CC(C3)C2C1=O (stereo not shown),3.52
8,COc1ccc(OC)c(CCNC(=O)CCn2ccc3cc(S(=O)(=O)N4CCCC4)ccc32)c1,-28.7
9,Cc1ccc2nc(N(CCN(C)C)C(=O)c3ccc4c(c3)OCCO4)sc2c1.Cl,-44.6
10,CCCCCCCCC(=O)N1CCN(c2cc3c(cc2F)c(=O)c(C(=O)O)cn3CC)CC1,-34.5
11,CN1CCN(C(=O)c2cccc(S(=O)(=O)N3CCCCC3)c2)CC1,-7.44
12,COc1cc2c(cc1OC)CN(CC(=O)NC(=O)NC1CCCCC1)CC2,3.28
13,O=C(CSC1=NC(=O)C(Cc2ccccc2)C(=O)N1)Nc1ncc(Br)cc1Br (stereo not shown),12.6
14,COc1ccccc1C(CNC(=O)c1cccc(S(=O)(=O)Nc2ccc(C)cc2)c1)N(C)C (stereo not shown),-8.39
15,Cc1ccnc(SCC(N)=O)n1,4.29
16,O=C(CN(c1cc(Cl)ccc1Cl)S(=O)(=O)c1ccccc1)N1CCOCC1,-21.5
17,Cc1cc(C(=O)N2CCC3(CC2)OCCO3)cs1,3.66
18,COc1ccccc1NC(=O)c1cccc2c(Br)cccc12,6.03
19,CC(=O)Nc1ccc(CN2CCN(CCc3ccccc3)C(CCO)C2)cc1 (stereo not shown),-51.8
20,Cc1ccc(C(=O)Nc2ccc(S(=O)(=O)N3CCc4ccccc43)cc2)o1,-1.01
21,O=C(COc1nsnc1N1CCOCC1)Nc1ccc(Br)cc1,-2.61
22,CCC1(C)Cc2c(sc3nnn(CC(=O)Nc4ccc(C)cc4)c(=O)c23)CO1 (stereo not shown),10.1

row,Structure (SMILES),"hERG current change (%, negative = inhibition) at 10uM [%]"
1,COC(=O)C1=C(C)N(CCC2=CCCCC2)C(=O)C1,1.46
2,CCN1CCC(NC(=O)Nc2ccccc2C(=O)OC)CC1,4.98
3,Cc1nn(Cc2ccccc2)c(Cl)c1C(=O)OCC(=O)NC(=O)NC12CC3CC(CC(C3)C1)C2,11.5
4,C/C(=C\c1cccc(Cl)c1)C(=O)c1c(C)cc(C)[nH]c1=O,-4.91
5,CCCCCCC(=O)Nc1nc(C)c(-c2csc(Nc3ccccc3OC)n2)s1,6.89
6,CCn1c(C)nc2cc(OC)ccc21,5.93
7,COc1cc(NC2c3ccccc3C(=O)N2c2cc(C)ccn2)cc(OC)c1OC (stereo not shown),6.98
8,Cn1c(CC(=O)Nc2ccccc2)nnc1SCC(=O)c1ccccc1,4.96
9,COc1ccccc1C(=O)Nc1nnc(S(=O)(=O)N2CCCCC2)s1,12.8
10,CN(CC(=O)Nc1ccc(Cl)c(Cl)c1)C(=O)C1CCCC1,-11.6
11,Cl.N=c1n(CCO)c2ccccc2n1Cc1ccc(Cl)cc1,-40.1
12,O=C(Nc1cc(Cl)cc(Cl)c1)C1CC(=O)N(C2CCCC2)C1 (stereo not shown),-16.5
13,O=P(NS(=O)(=O)c1ccc(Cl)cc1)(Oc1ccccc1)Oc1ccccc1,-6.11
14,CC(=O)Nc1ccc(-n2c(C)nc(=O)c(-c3ccccc3)c2C)cc1,13.7
15,CCOC(=O)c1ccc(OCCOc2ccccc2C)cc1,24
16,COc1ccc(NC(=O)c2cc(-c3ccncc3)nc3ccc(Br)cc23)cc1OC,-0.371
17,CCN(CC)S(=O)(=O)c1cc(NC(=O)c2n[nH]c(=O)c3ccccc23)ccc1C,18.7
18,CCc1ccc(Nc2nnc(SCC(=O)N(C)C3CCS(=O)(=O)C3)s2)cc1 (stereo not shown),-15.3
19,NS(=O)(=O)c1ccc(NC(=O)c2ccc3c(c2)OCO3)cc1,11.3
20,CCCN1CNC(=S)N(c2cccc(C)c2)C1,17
21,Cc1oc(-c2ccoc2)nc1CN(Cc1ccccc1)CC1CC1,-1.36
22,Cc1ccc2c(Cl)c(C)c(N3CCCCC3)nc2n1,-10.7
